Blank lines part the entries; values can stand above or below the binder they belong to.
Legend:
[1] = target: T1, mouse transferrin receptor (mouse, UniProt Q62351); experiment: FACS on mouse-TfR expressing BA/F3 cells, PE anti-human IgG Fc secondary
T1 construct: whole, on cells; also called mTfR; mouse TfR
Source text: (§1) We generated a variety of insect cell (S2)-derived constructs and analysed the purified molecules to assess their TfR binding and enzymatic properties (FIG. 1B-D). […] We benchmarked the enzymatic properties of all molecules described in the manuscript to the conventional ERT molecule imiglucerase (commercially available as Cerezyme). There is a tendency for the Brain Shuttle constructs to be more efficient in terms of the ratio of turnover to affinity to resorufin-β-D-glucopyranoside. Naked GCase constructs and TfR non-binder (GCase-NB) are very similar to imiglucerase (FIG. 1C). In addition, initial testing by spiking the produced murine and human GCase-BS constructs into 10% mouse plasma for a period of 15 minutes and both stability and enzymatic activity were maintained (FIG. 1E).
(§2) The binding of the GCase-BS fusions was tested using mouse-TfR expressing cell line BA/F3 (DSMZ, ACC-300) or human-TfR expressing CHO cells (ATCC, CCL-61, transfected to stably overexpress human TfR). Briefly, suspension cells were harvested, counted, checked for viability and re-suspended at 2 million cells per ml in FACS buffer (PBS with 0.1% BSA). 100 μl of the cell suspension (containing 0.2 million cells) were incubated in round-bottom 96-well plates for 1 hour at 4° C. with increasing concentrations of the GCase fusions (10 pM to 1 μM).

[2] = target: T1, mouse transferrin receptor; experiment: cell-based or functional assay
T1 sequence (Q62351 whole entry): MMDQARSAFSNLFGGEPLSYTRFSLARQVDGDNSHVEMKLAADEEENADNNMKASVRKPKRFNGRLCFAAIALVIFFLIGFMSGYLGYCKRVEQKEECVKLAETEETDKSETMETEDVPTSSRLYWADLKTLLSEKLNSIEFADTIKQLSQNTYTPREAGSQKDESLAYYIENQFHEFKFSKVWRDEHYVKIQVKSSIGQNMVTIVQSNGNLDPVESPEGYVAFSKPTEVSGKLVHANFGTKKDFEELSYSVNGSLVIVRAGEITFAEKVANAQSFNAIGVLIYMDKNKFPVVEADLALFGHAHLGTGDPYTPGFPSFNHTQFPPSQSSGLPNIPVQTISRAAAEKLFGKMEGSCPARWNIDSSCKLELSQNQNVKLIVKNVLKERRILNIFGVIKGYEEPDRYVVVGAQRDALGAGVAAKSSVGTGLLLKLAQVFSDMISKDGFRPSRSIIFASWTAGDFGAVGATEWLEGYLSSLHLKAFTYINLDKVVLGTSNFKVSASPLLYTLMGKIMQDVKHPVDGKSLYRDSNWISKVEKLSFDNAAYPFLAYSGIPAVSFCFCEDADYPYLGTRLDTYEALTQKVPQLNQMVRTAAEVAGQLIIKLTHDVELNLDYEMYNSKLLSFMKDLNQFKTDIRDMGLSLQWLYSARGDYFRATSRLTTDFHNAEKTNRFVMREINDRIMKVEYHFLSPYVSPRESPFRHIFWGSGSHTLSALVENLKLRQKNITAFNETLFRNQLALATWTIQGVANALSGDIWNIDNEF

[3] = target: T2, human transferrin receptor (human, UniProt P02786); experiment: FACS on CHO cells stably overexpressing human TfR, PE anti-human IgG Fc secondary
T2 construct: whole, on cells; also called hTfR; human TfR
Source text: as §1, §2

[4] = target: T2, human transferrin receptor; experiment: cell-based or functional assay
T2 sequence (P02786 whole entry): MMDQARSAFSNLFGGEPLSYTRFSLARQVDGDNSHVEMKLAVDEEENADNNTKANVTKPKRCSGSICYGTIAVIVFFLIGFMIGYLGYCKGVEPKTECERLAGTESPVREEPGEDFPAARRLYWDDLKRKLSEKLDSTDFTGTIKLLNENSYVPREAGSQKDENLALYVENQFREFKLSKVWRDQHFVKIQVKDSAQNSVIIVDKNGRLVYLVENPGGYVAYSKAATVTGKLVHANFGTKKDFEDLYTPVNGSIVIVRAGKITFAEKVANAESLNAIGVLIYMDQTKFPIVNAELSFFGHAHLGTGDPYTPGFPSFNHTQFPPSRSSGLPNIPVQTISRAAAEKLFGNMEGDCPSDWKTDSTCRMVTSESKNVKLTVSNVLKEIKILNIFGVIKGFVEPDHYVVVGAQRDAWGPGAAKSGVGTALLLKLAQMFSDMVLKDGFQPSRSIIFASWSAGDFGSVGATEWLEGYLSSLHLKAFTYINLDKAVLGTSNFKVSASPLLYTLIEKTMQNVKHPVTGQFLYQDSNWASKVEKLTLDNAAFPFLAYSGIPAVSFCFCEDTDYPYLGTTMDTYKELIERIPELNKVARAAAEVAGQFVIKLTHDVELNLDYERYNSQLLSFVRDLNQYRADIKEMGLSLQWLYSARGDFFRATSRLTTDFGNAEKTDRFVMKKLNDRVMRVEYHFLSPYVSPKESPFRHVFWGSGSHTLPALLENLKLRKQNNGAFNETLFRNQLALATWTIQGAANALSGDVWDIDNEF

EC50 [1]: 21 nM
GlcSph reduction after 48 h in mouse cortical neurons, IC50 fold against mGCase alone [2]: > 100 fold
B1: mGCase-mBS (Fc fusion)
chain 1: AQPCIPKSFGYSSVVCVCNASYCDSLDPVTLPALGTFSRYESTRRGRRMELSVGAIQANRTGTGLLLTLQPEKKFQKVKGFGGAMTDATALNILALSPPTQKLLLRSYFSTNGIEYNIIRVPMASCDFSIRVYTYADTPNDFQLSNFSLPEEDTKLKIPLIHQALKMSSRPISLFASPWTSPTWLKTNGRVNGKGSLKGQPGDIFHQTWANYFVKFLDAYAKYGLRFWAVTAENEPTAGLFTGYPFQCLGFTPEHQRDFISRDLGPALANSSHDVKLLMLDDQRLLLPRWAEVVLSDPEAAKYVHGIAVHWYMDFLAPAKATLGETHRLFPNTMLFASEACVGSKFWEQSVRLGSWDRGMQYSHSIITNLLYHVTGWTDWNLALNPEGGPNWVRNFVDSPIIVDIPKDAFYKQPMFYHLGHFSKFIPEGSQRVALVASESTDLETVALLRPDGSAVVVVLNRSSEDVPLTISDPDLGFLETVSPGYSIHTYLWRRQGSLPETGGGDKTHTCPPCPAPEAAGGPSVFLFPPKPKDTLMISRTPEVTCVVVDVSHEDPEVKFNWYVDGVEVHNAKTKPREEQYNSTYRVVSVLTVLHQDWLNGKEYKCKVSNKALGAPIEKTISKAKGQPREPQVCTLPPSRDELTKNQVSLSCAVKGFYPSDIAVEWESNGQPENNYKTTPPVLDSDGSFFLVSKLTVDKSRWQQGNVFSCSVMHEALHNRFTQKSLSLSPGK
chain 2: [human IgG1 Fc with changes not spelt out]GGSGGGGSGGGGSGGGGSDIQMTQSPASLSASLEEIVTITCQASQDIGNWLAWYQQKPGKSPQLLIYGATSLADGVPSRFSGSRSGTQFSLKISRVQVEDIGIYYCLQAYNTPWTFGGGTKVEIKRTVAAPSVFIFPPSDEQLKSGTASVVCLLNNFYPREAKVQWKVDNALQSGNSQESVTEQDSKDSTYSLSSTLTLSKADYEKHKVYACEVTHQGLSSPVTKSFNRGECGGGGSGGGGSGGGGSGGGGSGGGGSGGGGSGGEVQLVESGGGLVQPGNSLTLSCVASGFTFSNYGMHWIRQAPKKGLEWIAMIYYDSSKMNYADTVKGRFTISRDNSKNTLYLEMNSLRSEDTAMYYCAVPTSHYVVDVWGQGVSVTVSSASTKGPSVFPLAPSSKSTSGGTAALGCLVKDYFPEPVTVSWNSGALTSGVHTFPAVLQSSGLYSLSSVVTVPSSSLGTQTYICNVNHKPSNTKVDKKVEPKSC
notes: The exact chain make-up in the assay is therefore uncertain; also called murine GCase Brain Shuttle; GCase-BS (mouse)

EC50 [3]: 15 nM
GlcSph reduction after 48 h in H4 cells, IC50 fold against imiglucerase [4]: ~5 fold
B2: hGCase-hBS (Fc fusion)
chain 1: ARPCIPKSFGYSSVVCVCNATYCDSFDPPTFPALGTFSRYESTRSGRRMELSMGPIQANHTGTGLLLTLQPEQKFQKVKGFGGAMTDAAALNILALSPPAQNLLLKSYFSEEGIGYNIIRVPMASCDFSIRTYTYADTPDDFQLHNFSLPEEDTKLKIPLIHRALQLAQRPVSLLASPWTSPTWLKTNGAVNGKGSLKGQPGDIYHQTWARYFVKFLDAYAEHKLQFWAVTAENEPSAGLLSGYPFQCLGFTPEHQRDFIARDLGPTLANSTHHNVRLLMLDDQRLLLPHWAKVVLTDPEAAKYVHGIAVHWYLDFLAPAKATLGETHRLFPNTMLFASEACVGSKFWEQSVRLGSWDRGMQYSHSIITNLLYHVVGWTDWNLALNPEGGPNWVRNFVDSPIIVDITKDTFYKQPMFYHLGHFSKFIPEGSQRVGLVASQKNDLDAVALMHPDGSAVVVVLNRSSKDVPLTIKDPAVGFLETISPGYSIHTYLWHRQGSGGGGSGGSG[human IgG1 Fc with changes not spelt out]
chain 2: ADKTHTCPPCPAPEAAGGPSVFLFPPKPKDTLMISRTPEVTCVVVDVSHEDPEVKFNWYVDGVEVHNAKTKPREEQYNSTYRVVSVLTVLHQDWLNGKEYKCKVSNKALGAPIEKTISKAKGQPREPQVCTLPPSRDELTKNQVSLSCAVKGFYPSDIAVEWESNGQPENNYKTTPPVLDSDGSFFLVSKLTVDKSRWQQGNVFSCSVMHEALHNRFTQKSLSLSPGGGSGGGGSGGGGSGGGGSQSMQESGPGLVKPSQTLSLTCTVSGFSLSSYAMSWIRQHPGKGLEWIGYIWSGGSTDYASWAKSRVTISKTSTTVSLKLSSVTAADTAVYYCARRYGTSYPDYGDASGFDPWGQGTLVTVSSASVAAPSVFIFPPSDEQLKSGTASVVCLLNNFYPREAKVQWKVDNALQSGNSQESVTEQDSKDSTYSLSSTLTLSKADYEKHKVYACEVTHQGLSSPVTKSFNRGECGGGGSGGGGSGGGGSGGGGSGGGGSGGGGSGGAIQLTQSPSSLSASVGDRVTITCRASQSISSYLAWYQQKPGKAPKLLIYRASTLASGVPSRFSGSGSGTDFTLTISSLQPEDFATYYCQQNYASSNVDNTFGGGTKVEIKSSASTKGPSVFPLAPSSKSTSGGTAALGCLVKDYFPEPVTVSWNSGALTSGVHTFPAVLQSSGLYSLSSVVTVPSSSLGTQTYICNVNHKPSNTKVDKKVEPKSC
notes: also called human GCase Brain Shuttle; GCase-BS (human)
